Reference: PubChem BioAssay AID1476 (National Center for Advancing Translational Sciences (NCATS), 2009)
About 4,500 (2.2%) of roughly 200,000 compounds were called active. Inconclusive results, whose numbers are uncertain, are shown with a selection of clear calls. Calls come from the whole dose curve; as a rule, active = well fitted inhibition curve with a large enough effect; inconclusive = small, poorly fitted or top-dose-only effect, or effect the other way; inactive = flat fitted curve, though single readings scatter. Potencies of inconclusive entries are doubtful fits and often do not repeat.

target: Cruzipain (Trypanosoma cruzi) (UniProt P25779); experiment: qHTS Assay for Promiscuous and Specific Inhibitors of Cruzain (without detergent); settings: purified cruzain, Z-FR-AMC fluorescence, no detergent; note: nearly all actives have a fitted effect of over 40% in size;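 for max response, negative = inhibition: plate controls were enzyme without inhibitor for no effect and buffer without enzyme for full effect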
Chain of UniProt P25779 (P25779 whole entry, looked up): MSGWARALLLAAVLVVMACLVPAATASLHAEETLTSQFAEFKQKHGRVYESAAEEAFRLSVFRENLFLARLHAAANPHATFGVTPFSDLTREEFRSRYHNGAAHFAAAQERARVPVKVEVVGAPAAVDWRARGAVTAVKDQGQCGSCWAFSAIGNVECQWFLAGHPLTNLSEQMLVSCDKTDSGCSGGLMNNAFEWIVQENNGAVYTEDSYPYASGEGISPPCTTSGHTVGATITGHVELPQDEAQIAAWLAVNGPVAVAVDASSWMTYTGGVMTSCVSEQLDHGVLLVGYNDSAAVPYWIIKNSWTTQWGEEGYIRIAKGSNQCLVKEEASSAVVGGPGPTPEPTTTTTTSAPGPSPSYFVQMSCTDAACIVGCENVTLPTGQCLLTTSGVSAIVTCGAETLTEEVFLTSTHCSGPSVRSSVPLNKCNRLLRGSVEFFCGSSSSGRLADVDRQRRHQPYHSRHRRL
Method in brief: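 Purified cruzain at 1.5 nM, pre-incubated 15 min with compound at room temperature in 100 mM sodium acetate pH 5.5, 5 mM DTT, 0.00005% Triton X-100. Reaction started with 2 uM Z-FR-AMC; AMC fluorescence increase over 60 s gives rate.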
Potency is the fitted concentration of half-maximal effect; tags give direction and shape of the fitted curve.

Row | Structure (SMILES) | Potency | max response, negative = inhibition
1 | Cc1ccc(C2=Nc3ccccc3N(CC(=O)Nc3cccc(F)c3)C(=O)C2)cc1C | inconclusive: 3.98 µM [activator, partial curve] | –
2 | COc1ccc(-c2noc(-c3ccc(NCc4ccccc4OC)c([N+](=O)[O-])c3)n2)cc1 | – | inactive: -9.17%
3 | Cc1nn(CC(=O)NNC(=S)Nc2ccccc2)c(C)c1[N+](=O)[O-] | – | inactive: -3.18%
4 | CC(C)(C)c1ccc(C(=O)N2CCC(C(=O)NCC3CCCO3)CC2)cc1 (configuration not stated) | inconclusive: 20 µM [activator, single point] | –
5 | CC(=O)Nc1ccccc1O | – | inactive: 11.1%
6 | O=C(Nc1nc(-c2ccccc2)c(-c2ccccc2)s1)c1ccc(S(=O)(=O)N2CCCCC2)cc1 | active: 3.98 µM | –
7 | CC(=O)c1ccc(NC(=O)c2ncn(-c3ccccc3)n2)cc1 | – | inactive: -6.33%
8 | CCCC1(C(=O)OCC)NC(c2ccc(OC)cc2OC)C2C(=O)N(c3ccc4c(c3)OCCO4)C(=O)C21 (configuration not stated) | inconclusive: 39.8 µM [activator, single point] | –
9 | Cc1ccc(CSc2cn(CC(=O)N3CCCCC3)c3ccccc23)cc1 | – | inactive: 3.22%
10 | Cn1nc(C(=O)N2CCN(c3ccccc3F)CC2)c2c1-c1ccccc1SC2 | – | inactive: -3.91%
11 | Cc1ccc(NC(=O)c2cccn2-c2nnc(N3CCCCC3)s2)cc1Cl | – | inactive: -5.25%
12 | O=C1c2oc3ccc(F)cc3c(=O)c2C(c2cccc([N+](=O)[O-])c2)N1CCCN1CCOCC1 (configuration not stated) | – | inactive: -9.46%
13 | O=C(NCc1ccc(F)cc1)c1ccc(NC(=O)N2CC3CCCN3c3ccccc32)cc1 (configuration not stated) | inconclusive: 31.6 µM [inhibitor, single point] | –
14 | Cc1cccn2c(=O)c3cc(C#N)c(=O)n(CCCN4CCOCC4)c3nc12 | inconclusive: 39.8 µM [inhibitor, single point] | –
15 | NC(=O)/N=C(\N)NC(=O)c1ccccc1 | – | inactive: 5.71%
16 | COc1ccccc1N1CCN(C(=O)c2oc3cc(C)cc(C)c3c2C)CC1 | inconclusive: 31.6 µM [activator, single point] | –
17 | Cc1cc(/C=N/Nc2ccc([N+](=O)[O-])cn2)c(C)n1-c1ccccc1 | active: 3.98 µM | –
18 | COc1cccc(Cn2c(=O)cnc3cnc(Oc4cccc(Cl)c4)nc32)c1 | inconclusive: 39.8 µM [activator, single point] | –
19 | CC(=O)Nc1cc(C(=O)OC(C(=O)c2ccccc2)c2ccccc2)ccc1C (configuration not stated) | inconclusive: 39.8 µM [activator, single point] | –
20 | Nc1nc(SCc2ccc(Cl)cc2Cl)nc2nc3c(cc12)CCCC3 | active: 12.6 µM | –
21 | COc1ccc(NC(=O)CN(Cc2ccccc2)S(=O)(=O)c2ccc3nc(C)sc3c2)cc1 | inconclusive: 25.1 µM [activator, partial curve] | –

Row | Structure (SMILES) | Potency | max response, negative = inhibition
22 | O=C(Nc1cc(C(F)(F)F)ccc1N1CCOCC1)c1ccc2ccccc2n1 | inconclusive: 3.16 µM [inhibitor, partial curve] | –
23 | CSc1nc2sc3c(c2c(=O)n1C1CCCCC1)CCN(C)C3 | – | inactive: -4.55%
24 | COc1cc(CN(C(=O)COc2ccc(C)c(C)c2)c2ccccn2)cc(OC)c1OC | inconclusive: 39.8 µM [activator, single point] | –
25 | Brc1ccc2c(c1)c1cc(Br)ccc1n2CC1CO1 (configuration not stated) | – | inactive: -0.0079%
26 | Cc1cc(O)c(C(c2ccccc2Cl)N2CCN(c3ccccc3)CC2)c(=O)n1Cc1ccco1 (configuration not stated) | inconclusive: 25.1 µM [inhibitor, single point] | –
27 | COc1ccccc1NC(=O)c1sc2ncn(Cc3ccccc3C)c(=O)c2c1C | inconclusive: 39.8 µM [inhibitor, single point] | –
28 | CCCCOc1ccc(C(=O)N/C(=C\c2cccc([N+](=O)[O-])c2)C(=O)OCCC)cc1 | inconclusive: 39.8 µM [inhibitor, single point] | –
29 | COc1ccc2o/c(=N/NC(=S)Nc3ccccc3)c(C(N)=O)cc2c1 | active: 6.31 µM | –
30 | CCCSc1nc(C)c(-c2csc(C(C#N)=C3CCCC3)n2)cc1C#N | inconclusive: 5.01 µM [inhibitor, partial curve] | –
31 | Cc1ccc(S(=O)(=O)Nc2cc3c(cc2N2CCOCC2)n(C)c(=O)n3C)c(C)c1 | inconclusive: 39.8 µM [activator, single point] | –
32 | Cc1ccc(CSc2nc(=O)c3c(n2C)NC(=O)CC3c2ccc(OC(C)C)cc2)cc1 (configuration not stated) | – | inactive: -1.96%
33 | COc1c(F)c(F)c(C(=O)Nc2ccc(NC(=O)c3ccco3)cc2)c(F)c1F | inconclusive: 31.6 µM [inhibitor, single point] | –
34 | CCOC(=O)C1=C(C)NC(=S)NC1c1ccc(-c2ccc(Cl)cc2)o1 (configuration not stated) | inconclusive: 31.6 µM [inhibitor, single point] | –
35 | CCCCC(CC)Cn1c2nc3ccccc3nc2c2c(=N)oc(C)nc21 (configuration not stated) | inconclusive: 20 µM [activator, single point] | –
36 | Cc1ccc(NC(=O)Cn2c(-c3ccc4c(c3)OCO4)cn(-c3ccccc3)c2=O)cc1 | inconclusive: 25.1 µM [inhibitor, partial curve, poor fit] | –
37 | C=C(C)CN(CC)c1nc(N)c2c(N)nc3c(c2c1C#N)CC(=O)N3C12CC3CC(CC(C3)C1)C2 | active: 3.98 µM | –
38 | CCOC(=O)CCC(NC(=O)CCCCCCCCC(=O)NC(CCC(=O)OCC)C(=O)OCC)C(=O)OCC (configuration not stated) | inconclusive: 15.8 µM [activator, partial curve] | –
39 | O=c1[nH]c(Nc2ccccc2)cc2ccccc12 | inconclusive: 31.6 µM [inhibitor, single point] | –
40 | CCOc1ccccc1NC(=O)CC1Nc2ccccc2NC1=O (configuration not stated) | inconclusive: 25.1 µM [inhibitor, partial curve, poor fit] | –
41 | CCN(CCNc1ccc([N+](=O)[O-])c2cccnc12)S(=O)(=O)c1ccc(Cl)cc1 | inconclusive: 31.6 µM [inhibitor, single point] | –
42 | O=C(CSc1oc(-c2ccco2)nc1S(=O)(=O)c1ccc(Cl)cc1)c1ccc(Cl)cc1 | active: 25.1 µM | –
